Data reported in PubChem BioAssay AID1508621 (National Center for Advancing Translational Sciences (NCATS), 2021).
Inconclusive results, whose numbers are uncertain, are shown with a selection of clear calls. Where the call is inconclusive, the potency comes from a doubtful curve fit. Active and inactive are the calls of the source. The call rests on the fitted dose curve; in most records, active means well fitted inhibition curve with a large enough effect; inconclusive means small, poorly fitted or top-dose-only effect; inactive means no such curve, though single readings can be large or run the other way.

Assay: Confirmatory qHTS for Identification of Small Molecule Inhibitors of Huntingtin Promoter Activity; further: nearly all actives have a fitted effect of over 65% in size;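 on activity change, negative = inhibition: 0% = vehicle control and -100% = zero luminescence signal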
Conditions: HEK293 HTT promoter firefly luciferase reporter, 24 h; series mostly up to 57.5 µM; activity change, negative = inhibition: at the top concentration
Summary of the method: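 Plated reporter HEK293 cells (24 h) received library compounds at up to 57.5 uM final or 50 uM PTC124, incubated 24 h at 37C; firefly luciferase luminescence was then recorded with Dual-Glo reagent.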
Potency means the concentration at half of the fitted maximal effect; tags describe the fitted curve by direction and shape.

SMILES	Potency	activity change, negative = inhibition
CCOC(=O)c1ccc(CN(Cc2ccc(C)cc2)S(=O)(=O)c2ccc(NC(C)=O)cc2)cc1	inconclusive: 10.7 µM [inhibitor, partial curve]	
CCOc1ccc(C(NC(=O)c2cc(OC)c(OC)c(OC)c2)c2cc(Cl)c3cccnc3c2O)cc1 (centres undefined)	inconclusive: 5.36 µM [inhibitor, full curve]	
CCOc1ccccc1NS(=O)(=O)c1ccc2c(c1)CC(C)N2C(=O)C1CC1 (centres undefined)	inconclusive: 30.1 µM [inhibitor, single point]	
CCOc1ccc(CCNC(=O)c2sc3ncccc3c2-n2c(C)ccc2C)cc1	inconclusive: 16.9 µM [inhibitor, partial curve]	
CC(C)c1nc2ccc(C(=O)NCCCN3CCN(c4cccc(Cl)c4)CC3)cc2o1		inactive: 12.1%
CCOC(=O)C1=C(CN2CCN(c3ccc(OC)cc3)CC2)NC(=O)NC1c1ccc(OC)cc1 (centres undefined)	inconclusive: 13.5 µM [inhibitor, partial curve]	
Cc1ccc(C(=O)NCc2ccc3c(c2)CCN3C(=O)c2ccc(C)cc2)cc1	inconclusive: 37.9 µM [inhibitor, single point]	
CCN(CCCNC(=O)c1cc2cc3ccc(C)cc3nc2s1)c1ccccc1		inactive: -14.1%
CCOC(=O)c1ccc(Nc2nc3nonc3nc2Nc2cccc(C)c2C)cc1	inconclusive: 1.2 µM [inhibitor, full curve]	
O=C(Cc1ccccc1)Nc1cccc(-c2cn3cccnc3n2)c1		inactive: 42.3%
COc1ccc(-n2c(/C=C/c3cccc4ccccc34)nc3ccccc3c2=O)cc1Cl		inactive: -19.7%
Cc1cc(C)c(/C=C/c2onc(C)c2S(=O)(=O)N2CCC(C(=O)NCc3ccco3)CC2)c(C)c1	inconclusive: 23.9 µM [inhibitor, partial curve]	
CSc1ccc(CCNC(=O)c2ccc(CS(=O)(=O)c3ccc(Br)cc3)o2)cc1	inconclusive: 16.9 µM [inhibitor, partial curve]	
CCOc1ccc(C(=O)N(Cc2cc(OC)c(OC)c(OC)c2)c2ccccn2)cc1		inactive: -18.3%
CCCCOc1ccc(C(=O)Nc2ccc3c(c2)CCCN3S(=O)(=O)c2ccc(C)cc2)cc1	inconclusive: 6.01 µM [inhibitor, partial curve]	
C=Cc1ccc(Cn2c(C(=O)O)c(CNCc3ccccc3)c3ccc(C)cc32)cc1	active: 21.3 µM	
CCCOc1ccc(C2c3c(-c4ccccc4O)n[nH]c3C(=O)N2CCCOCC)cc1OCC (centres undefined)	inconclusive: 30.1 µM [inhibitor, single point]	
O=C(O)c1ccc2c(c1)N(Cc1ccc(F)cc1)C(=O)c1ccccc1S2=O (centres undefined)		inactive: 1.14%
Cc1cccc(Cn2c(SCc3ccc(C(=O)N4CCCCCC4)cc3)nc3ccncc32)c1	inconclusive: 21.3 µM [inhibitor, single point]	
CCOC(=O)C1=C(CN2CCN(c3ccccc3F)CC2)NC(=O)NC1c1ccc(OC)cc1 (centres undefined)	inconclusive: 21.3 µM [inhibitor, single point]	
CCCN(C(=O)CCc1nc(-c2ccc(C)cc2)no1)c1ccc(OCC)cc1	inconclusive: 23.9 µM [inhibitor, single point]	
Cc1cccc(NC(=O)c2c(NC(=O)C(F)(F)F)sc3c2CCCCC3)c1	active: 2.39 µM	
CCCOCc1cc(CN2CCN(c3cccc(Cl)c3)CC2)c(O)c2ncccc12	inconclusive: 6.01 µM [inhibitor, full curve]	
Cc1nc2cccnc2n1-c1cccc(C(=O)NCc2ccc(OC(C)C)cc2)c1	inconclusive: 26.9 µM [inhibitor, partial curve]	
COc1cc2ccccc2cc1C(=O)N1CCN(c2nc3ccc(F)cc3s2)CC1	inconclusive: 30.1 µM [inhibitor, partial curve]	
Cc1ccc(S(=O)(=O)n2nc(-c3ccco3)nc2NCc2ccccc2Cl)cc1		inactive: 22.1%
Cc1ccc(CN2CCC(CNC(=O)c3cnn(-c4ccccc4Cl)c3C3CCN(C(=O)OC(C)(C)C)CC3)CC2)cc1	inconclusive: 21.3 µM [inhibitor, single point]	
Cc1cc(C)cc(NC(=O)C2CCCN2S(=O)(=O)c2ccc3c(c2)CCCC(=O)N3)c1 (centres undefined)	inconclusive: 26.9 µM [inhibitor, single point]	
COc1ccc(C(=O)Nc2ccc(-c3cc4ccccc4oc3=O)c(C)c2)cc1Br	inconclusive: 8.49 µM [inhibitor, partial curve]	
